172 sequences from article PMC6212790 can be followed below.

The other results are listed elsewhere or left out. At the low end of the ranking the order means little.

In this experiment the target is T1, GST-Rok (full length) (UniProt O34857).
T1 sequence: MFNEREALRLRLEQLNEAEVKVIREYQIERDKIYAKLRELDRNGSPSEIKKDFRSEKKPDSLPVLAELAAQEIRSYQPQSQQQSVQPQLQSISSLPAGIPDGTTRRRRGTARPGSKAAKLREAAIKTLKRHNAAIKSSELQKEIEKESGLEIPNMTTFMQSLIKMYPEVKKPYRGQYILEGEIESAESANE
Nature of the experiment: protein binding microarray.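 Further: rank score from −0.5 (least bound) to 0.5 (best bound).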 The conditions noted are these: Rok is a gene silencer of Bacillus subtilis; high values mean tight binding; most listed sequences are background and not binding sites; double strand, one strand shown.
For the sequence AGACTCTA, the binding signal worked out at 0.0103 E-score.
To CCAGGTCG belongs -0.194 E-score; to TACAAACA, 0.369 E-score; to GTGTGATA, -0.106 E-score.
To CAAGGGTA belongs -0.127 E-score; to CGTAGTTA, 0.127 E-score.
Sequence TTATTGAA showed a binding signal of -0.0458 E-score.
To CGGTAGCC belongs -0.179 E-score; to ATCTGTCG, -0.0114 E-score.
Consider CCTTAGAG, for which the binding signal was -0.347 E-score.
To ATGTGTTA belongs 0.0717 E-score; to GCAGCAGA, -0.0341 E-score.
Turning to AACTGGGG, the binding signal was -0.305 E-score.
With CCAATGCC the figure was -0.232 E-score; with GCTTGACC, -0.288 E-score; with AAGCATAA, 0.0528 E-score.
With TCCCGGAA the figure was -0.271 E-score.
With GCATCGGA, the binding signal was -0.0958 E-score.
With GGGAATAC the figure was -0.0105 E-score; with GCGTGTCC, -0.226 E-score; with CCTTGCCG, -0.231 E-score.
With CGGGCTCC the figure was -0.311 E-score; with ACTTGACG, 0.0357 E-score; with ATACGCAT, -0.0297 E-score.
Regarding AGCGAAAG, the binding signal is -0.0813 E-score.
To AAAAGGTG belongs -0.164 E-score; to TGTAAACA, 0.0871 E-score; to CGAAACGA, 0.114 E-score.
With ATAATGAG the figure was 0.22 E-score; with AAATCTAC, 0.398 E-score; with GCATGGAC, 0.0483 E-score.
To AATTTGTG belongs 0.14 E-score; to CCTGACGC, -0.272 E-score.
Sequence GTGTGACA showed a binding signal of -0.105 E-score.
In turn, CTAGCAAG yielded a binding signal of 0.28 E-score.
With ACTGTAAT the figure was 0.275 E-score; with GGAATCAC, 0.0431 E-score.
To TGATGCCA belongs -0.222 E-score; to ACCCGGAA, -0.115 E-score.
With AGAGACTG the figure was -0.0188 E-score.
The sequence CCGTTGGC displayed a binding signal of -0.284 E-score.
With GCGGAGTA the figure was -0.00587 E-score; with AAATCCCC, -0.221 E-score; with CTGGCGCC, -0.309 E-score.
With CGGGATAC the figure was 0.119 E-score; with TCCGACGA, 0.0222 E-score; with ATTGAATG, 0.0431 E-score.
To ACCATGTG belongs -0.159 E-score; to CAAAGTGC, -0.128 E-score; to AGAAGATC, -0.079 E-score.
In the case of GGTATCAA, the binding signal amounted to 0.0596 E-score.
To AGCTCTTA belongs 0.0963 E-score.
With ACTGAGGC the figure was -0.152 E-score.
To ATAACCAG belongs 0.0111 E-score; to CCAATTGC, 0.145 E-score.
With CAAGATTG, the binding signal is -0.175 E-score.
To ATCGAATA belongs 0.249 E-score; to AGGCGTCC, -0.275 E-score.
With ATTAGACA the figure was 0.121 E-score; with CAGGCCTA, -0.221 E-score; with CCGTGAGA, -0.107 E-score.
To CTGTAGCC belongs -0.221 E-score; to ATGAACTA, 0.0684 E-score.
For the sequence CATAACCA, the binding signal turned out to be 0.0243 E-score.
With GAACTATC the figure was 0.292 E-score.
Turning to ATTGGAAC, the binding signal was -0.0148 E-score.
With GAGACCAC the figure was -0.212 E-score.
With AGGTACAA the figure was 0.14 E-score; with TACGTACA, 0.262 E-score; with CAGTAGAA, 0.391 E-score.
With AATCATAA the figure was 0.21 E-score; with CGCATGGA, -0.0759 E-score; with AAAACTCC, 0.0005 E-score.
TGGGGCAA displayed a binding signal of -0.127 E-score.
To CAAACGGC belongs -0.0035 E-score; to GTATGGGA, -0.187 E-score.
With CCTCCAGG the figure was -0.207 E-score.
Turning to CCGCAGGC, the binding signal was -0.214 E-score.
To AAAGTGCT belongs -0.107 E-score.
Consider AGCCATCC, for which the binding signal is -0.175 E-score.
To GACCAAAC belongs -0.143 E-score.
With CCGTATCC the figure was -0.0374 E-score; with CGCTACAA, 0.0368 E-score; with AGGGGGTA, -0.29 E-score.
With ACTCCCCA the figure was -0.424 E-score.
Sequence CAATTGTA displayed a binding signal of 0.339 E-score.
For the sequence ATGCAGTA, the binding signal was 0.319 E-score.
To CCTGTTAG belongs 0.032 E-score; to TAACTACA, 0.441 E-score; to CACCGACG, -0.169 E-score.
With GAACACTC the figure was -0.0422 E-score.
For the sequence CCCTTACG, the binding signal is -0.193 E-score.
To CACACATC belongs -0.147 E-score; to AGTAGGAG, -0.135 E-score; to ACATATGC, 0.266 E-score.
With AATAGTAA the figure was 0.325 E-score.
To ATGATTAA belongs 0.186 E-score.
ACTAATGC had a binding signal of 0.282 E-score.
To GTCGAATA belongs 0.054 E-score.
To AATTTACC belongs 0.296 E-score.
With AGTCTCAC the figure was -0.131 E-score; with GCTTGTCC, -0.182 E-score; with GACAAAGA, 0.0143 E-score.
In turn, CCAGGGGC gave a binding signal of -0.433 E-score.
With AGGTATAC the figure was 0.172 E-score; with ACTCTTCA, 0.0587 E-score; with ATAATCAA, 0.223 E-score.
With GGAGGGAA the figure was -0.283 E-score; with ATGGCCTA, 0.023 E-score.
To CTATAGGC belongs 0.025 E-score.
In the case of CAAGTCAC, the binding signal was -0.0913 E-score.
To ATCAAGAC belongs 0.0172 E-score; to ACCAGTGG, -0.3 E-score; to CGCTGCCG, -0.314 E-score.
With CGTTGTAG the figure was 0.198 E-score; with AACAATGT, 0.154 E-score.
To CGTTCGGA belongs -0.107 E-score; to CCGCCTAC, -0.142 E-score.
In turn, TGCCGAAA displayed a binding signal of -0.0829 E-score.
With AAGGAGGT the figure was -0.181 E-score; with AAAAGCCT, -0.315 E-score; with ATGCTGCG, -0.211 E-score.
With CGGATCAC the figure was 0.0266 E-score; with TAGACGAA, 0.0666 E-score.
The sequence ACGAAACA had a binding signal of 0.0691 E-score.
With TACGAAAA the figure was 0.189 E-score; with AGTCTGAT, 0.155 E-score.
In the case of CAACAAGC, the binding signal was -0.235 E-score.
To CTGACGTC belongs -0.0753 E-score; to CAGTCCCC, -0.397 E-score; to ACCATATC, 0.133 E-score.
With GTTAAGGA the figure was -0.0172 E-score.
With AGCCGACA the figure was -0.246 E-score.
In the case of GAGAACAA, the binding signal is -0.119 E-score.
With CGTGGAAA the figure was -0.0946 E-score; with ATCTCTTG, 0.11 E-score; with GCAGTCCC, -0.303 E-score.
To AACCGCGT belongs 0.00983 E-score; to ACTCTGAA, -0.0894 E-score.
To GGGATGTA belongs 0.0786 E-score; to AAGAGCAT, -0.0948 E-score; to AGGCTGGG, -0.31 E-score.
In the case of AATGCTAT, the binding signal is 0.116 E-score.
To CTTACCTC belongs 0.143 E-score; to CCCAGAAA, -0.0961 E-score; to ATGGGAAG, -0.191 E-score.
To GATACTTA belongs 0.169 E-score; to AGATAACA, 0.241 E-score.
For CGTAGGTC, the binding signal was -0.245 E-score.
To AGCATGAC belongs -0.238 E-score; to CAAGGCTA, -0.206 E-score.
With ACAGTGGT the figure was 0.0798 E-score; with ATTTTAGG, 0.0264 E-score; with ACTGTGCG, -0.0878 E-score.
With CGTTCAAC the figure was -0.109 E-score; with CGTCACGC, -0.145 E-score.
As for ACAACATC, the binding signal turned out to be 0.046 E-score.
ACGAGCCT had a binding signal of -0.2 E-score.
To AAATTTAT belongs 0.351 E-score; to CTAAAGAC, -0.0682 E-score.
For AGTGATTG, the binding signal was -0.118 E-score.
With ATCGTAAG the figure was 0.0527 E-score.
To GTCGTTGA belongs 0.00247 E-score.
To ACACTGCA belongs 0.0824 E-score; to CACGTCAG, -0.171 E-score; to CGGTTCCC, -0.221 E-score.
In turn, AACTGTAT came in with a binding signal of 0.0995 E-score.
With GTTGCTGA the figure was 0.0486 E-score; with TCCGTACA, 0.0484 E-score; with TCAACGAA, 0.0593 E-score.
To AACACGAG belongs 0.0551 E-score; to AGAGCAGA, -0.0508 E-score.
